These are yes or no findings as the source states them, for the method shown. In cells and extracts the contact can be indirect. Sequences can lack the tags named with a protein.
Experiments:
[1] = target: T1, endoglin wild-type, EYFP- or ECFP-tagged (human, UniProt P17813 26-658); test: FRET or BRET; microscopic FRET in living CHO cells, ECFP donor and EYFP acceptor, 50 ng of each construct per 100 000 cells, 24 h after transfection, HEPES buffered ringer solution; FRET index (FI) = FRET efficiency x area with FRET; FI<51 no interaction, 51-99 weak or false positive, >=100 interaction; at least 30 cells per sample
T1 construct: endoglin (CD105), human, wild type; EYFP-tagged with the ECFP-tagged receptors and with soluble ECFP; ECFP-tagged with the EYFP-tagged mutants; both versions together for the homodimer; also called endoglin^wt-EYFP; endoglin^wt-ECFP; source: CHO cells, transiently co-transfected (50 ng of each construct per 100 000 cells), in living cells; not shown: EYFP (acceptor) or ECFP (donor), C-terminal, …
T1 sequence (looked up): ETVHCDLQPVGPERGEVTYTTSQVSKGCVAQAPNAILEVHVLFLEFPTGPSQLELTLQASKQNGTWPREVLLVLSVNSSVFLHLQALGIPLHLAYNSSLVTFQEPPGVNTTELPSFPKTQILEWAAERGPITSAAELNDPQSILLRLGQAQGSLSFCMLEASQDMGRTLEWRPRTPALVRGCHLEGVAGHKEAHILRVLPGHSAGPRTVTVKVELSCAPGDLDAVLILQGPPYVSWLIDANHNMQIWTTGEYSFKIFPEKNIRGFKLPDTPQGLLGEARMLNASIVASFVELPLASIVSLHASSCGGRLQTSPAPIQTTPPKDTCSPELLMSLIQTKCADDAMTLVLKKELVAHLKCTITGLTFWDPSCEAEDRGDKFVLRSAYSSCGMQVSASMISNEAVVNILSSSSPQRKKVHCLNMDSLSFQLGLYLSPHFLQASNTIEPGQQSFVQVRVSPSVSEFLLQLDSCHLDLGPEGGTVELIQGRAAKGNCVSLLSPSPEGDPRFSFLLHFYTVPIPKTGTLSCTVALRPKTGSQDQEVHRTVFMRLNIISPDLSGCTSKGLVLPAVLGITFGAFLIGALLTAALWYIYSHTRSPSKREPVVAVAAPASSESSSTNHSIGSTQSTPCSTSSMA

[2] = target: T2, endoglin G52V, EYFP-tagged (with an ECFP-tagged copy for the homodimer) (human) (UniProt P17813); test: as above
T2 sequence: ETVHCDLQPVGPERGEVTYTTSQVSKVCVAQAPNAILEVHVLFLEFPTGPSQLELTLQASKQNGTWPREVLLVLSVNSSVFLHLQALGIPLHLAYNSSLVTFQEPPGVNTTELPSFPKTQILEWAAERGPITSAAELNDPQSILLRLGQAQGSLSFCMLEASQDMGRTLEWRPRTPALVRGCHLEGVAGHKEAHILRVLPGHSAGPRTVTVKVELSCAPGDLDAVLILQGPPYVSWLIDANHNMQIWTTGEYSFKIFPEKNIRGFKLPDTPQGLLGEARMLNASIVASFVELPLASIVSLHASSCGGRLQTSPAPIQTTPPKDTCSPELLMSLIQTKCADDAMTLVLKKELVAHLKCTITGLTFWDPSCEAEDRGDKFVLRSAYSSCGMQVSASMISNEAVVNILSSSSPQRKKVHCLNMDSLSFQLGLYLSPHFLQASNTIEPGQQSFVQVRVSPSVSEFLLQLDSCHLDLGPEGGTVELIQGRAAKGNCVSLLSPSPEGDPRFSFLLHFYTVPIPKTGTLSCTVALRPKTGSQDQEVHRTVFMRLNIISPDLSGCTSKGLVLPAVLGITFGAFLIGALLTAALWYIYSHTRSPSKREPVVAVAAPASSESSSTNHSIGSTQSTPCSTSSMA

B1: integrin-alpha-6-ECFP (receptor, UniProt P23229 24-1130)
chain: FNLDTREDNVIRKYGDPGSLFGFSLAMHWQLQPEDKRLLLVGAPRAEALPLQRANRTGGLYSCDITARGPCTRIEFDNDADPTSESKEDQWMGVTVQSQGPGGKVVTCAHRYEKRQHVNTKQESRDIFGRCYVLSQNLRIEDDMDGGDWSFCDGRLRGHEKFGSCQQGVAATFTKDFHYIVFGAPGTYNWKGIVRVEQKNNTFFDMNIFEDGPYEVGGETEHDESLVPVPANSYLGLLFLTSVSYTDPDQFVYKTRPPREQPDTFPDVMMNSYLGFSLDSGKGIVSKDEITFVSGAPRANHSGAVVLLKRDMKSAHLLPEHIFDGEGLASSFGYDVAVVDLNKDGWQDIVIGAPQYFDRDGEVGGAVYVYMNQQGRWNNVKPIRLNGTKDSMFGIAVKNIGDINQDGYPDIAVGAPYDDLGKVFIYHGSANGINTKPTQVLKGISPYFGYSIAGNMDLDRNSYPDVAVGSLSDSVTIFRSRPVINIQKTITVTPNRIDLRQKTACGAPSGICLQVKSCFEYTANPAGYNPSISIVGTLEAEKERRKSGLSSRVQFRNQGSEPKYTQELTLKRQKQKVCMEETLWLQDNIRDKLRPIPITASVEIQEPSSRRRVNSLPEVLPILNSDEPKTAHIDVHFLKEGCGDDNVCNSNLKLEYKFCTREGNQDKFSYLPIQKGVPELVLKDQKDIALEITVTNSPSNPRNPTKDGDDAHEAKLIATFPDTLTYSAYRELRAFPEKQLSCVANQNGSQADCELGNPFKRNSNVTFYLVLSTTEVTFDTPDLDINLKLETTSNQDNLAPITAKAKVVIELLLSVSGVAKPSQVYFGGTVVGEQAMKSEDEVGSLIEYEFRVINLGKPLTNLGTATLNIQWPKEISNGKWLLYLVKVESKGLEKVTCEPQKEINSLNLTESHNSRKKREITEKQIDDNRKFSLFAERKYQTLNCSVNVNCVNIRCPLRGLDSKASLILRSRLWNSTFLEEYSKLNYLDILMRAFIDVTAAAENIRLPNAGTQVRVTVFPSKTVAQYSGVPWWIILVAILAGILMLALLVFILWKCGFFKRSRYDDSVPRYHAVRIRKEEREIKDEKYIDNLEKKQWITKWNENESYS
binding [1]: no binding | binding [2]: no binding

— article PMC4117486, “Investigation of Endoglin Wild-Type and Missense Mutant Protein Heterodimerisation Using Fluorescence Microscopy Based IF, BiFC and FRET Analyses” (PLoS ONE, 2014)
